Data on 87 compounds can be found in paper PMC4336329 (PLoS ONE, 2015).

Structures are written as SMILES. About 2,200 (0.71%) of roughly 310,000 compounds showed an effect of 50% or more. Effects have a minus sign here. This is one part of the list.

In this test the target is human ether-à-go-go-related gene (hERG) potassium channel (human, UniProt Q12809). As to the kind of experiment: primary screen, population patch clamp on CHO cells stably expressing hERG.
human ether-à-go-go-related gene (hERG) potassium channel, sequence (Q12809 whole entry, looked up): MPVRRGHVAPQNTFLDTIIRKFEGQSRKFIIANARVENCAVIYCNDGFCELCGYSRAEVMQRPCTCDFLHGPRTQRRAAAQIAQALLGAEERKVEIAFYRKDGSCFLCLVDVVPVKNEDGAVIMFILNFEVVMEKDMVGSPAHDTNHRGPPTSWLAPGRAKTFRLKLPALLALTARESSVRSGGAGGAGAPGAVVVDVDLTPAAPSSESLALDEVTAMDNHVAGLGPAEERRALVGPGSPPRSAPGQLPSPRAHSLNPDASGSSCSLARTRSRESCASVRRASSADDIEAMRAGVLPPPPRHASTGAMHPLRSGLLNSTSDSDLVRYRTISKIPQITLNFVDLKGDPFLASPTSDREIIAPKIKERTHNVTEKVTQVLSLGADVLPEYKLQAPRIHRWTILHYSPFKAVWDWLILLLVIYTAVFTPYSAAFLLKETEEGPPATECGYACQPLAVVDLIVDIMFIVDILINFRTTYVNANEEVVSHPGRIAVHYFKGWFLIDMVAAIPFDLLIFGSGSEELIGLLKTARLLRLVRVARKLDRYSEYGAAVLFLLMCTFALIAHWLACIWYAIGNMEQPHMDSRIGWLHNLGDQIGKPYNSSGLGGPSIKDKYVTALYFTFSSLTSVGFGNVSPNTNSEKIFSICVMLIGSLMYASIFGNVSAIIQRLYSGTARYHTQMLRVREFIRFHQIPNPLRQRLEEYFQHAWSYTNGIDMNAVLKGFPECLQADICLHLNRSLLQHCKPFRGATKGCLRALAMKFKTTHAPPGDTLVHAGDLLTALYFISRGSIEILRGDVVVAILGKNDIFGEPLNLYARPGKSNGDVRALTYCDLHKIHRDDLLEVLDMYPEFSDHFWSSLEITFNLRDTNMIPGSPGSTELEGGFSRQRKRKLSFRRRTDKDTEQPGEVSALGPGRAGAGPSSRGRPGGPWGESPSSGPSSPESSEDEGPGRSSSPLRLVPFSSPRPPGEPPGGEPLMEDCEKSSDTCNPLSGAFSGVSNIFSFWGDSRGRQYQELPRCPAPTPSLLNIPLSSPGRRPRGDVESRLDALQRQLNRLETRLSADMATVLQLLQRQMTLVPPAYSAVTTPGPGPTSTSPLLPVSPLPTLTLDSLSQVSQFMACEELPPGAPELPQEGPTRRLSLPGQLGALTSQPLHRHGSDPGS
Regarding `CCOc1ccc(Br)cc1S(=O)(=O)NC1CC(C)(C)NC(C)(C)C1`, the “hERG current change (%, negative = inhibition) at 1uM” value is on record as 17%. Turning to `Cc1cc(-c2cc(C(=O)NCc3ccccc3)on2)nc(NCC2CC2)n1`, the “hERG current change (%, negative = inhibition) at 1uM” value is given as 13.4%. With `CC1CCN(S(=O)(=O)c2ccc(C(=O)NCc3ccc4c(c3)OCO4)cc2)CC1` the figure was -8.17%. Consider `CC1=CCC2([N+](=O)[O-])CN(CC(=O)O)CC1([N+](=O)[O-])C2` (stereo not drawn), for which the “hERG current change (%, negative = inhibition) at 1uM” value is reported as -3.41%. With `CCCNC(=O)CS(=O)Cc1nc(-c2ccc(OC)cc2)oc1C` (stereo not drawn) the figure was 11.2%. As for `COC(=O)c1ccc(SC2CCCCC2)c([N+](=O)[O-])c1`, the figure is 19.4%. As for `CC1(NC(=O)Cc2c(Cl)cccc2Cl)CCS(=O)(=O)C1` (stereo not drawn), the figure is 15.3%. As to `C=CC12C=CC=CN1C(C(=O)OC)=C(C(=O)OC)C(C(=O)OC)=C2C(=O)OC` (stereo not drawn), the “hERG current change (%, negative = inhibition) at 1uM” value amounted to 5.35%. As for `COc1ccc(CCN2C(=O)CS/C2=N/NC(=O)c2ccccc2F)cc1OC`, the “hERG current change (%, negative = inhibition) at 1uM” value is reported as -1.19%.

With `COc1cc(NC(=O)c2ccccc2)c(OC)cc1NC(=O)CN1CCOCC1`, the “hERG current change (%, negative = inhibition) at 1uM” value turned out to be 6.98%. On to `O=C(NC1CCCc2ccccc21)c1cccc(Br)c1` (stereo not drawn), for which the “hERG current change (%, negative = inhibition) at 1uM” value was determined as 3.46%. As for `COc1ccc(NC(=O)CN(C)C(=O)Cn2cnc3c2c(=O)n(C)c(=O)n3C)cc1`, the figure is 2.39%. As for `S=c1[nH]nc(-c2ccc(Cl)cc2)n1CCCN1CCOCC1`, the figure is 7.41%; as for `COc1cc(CNCCc2ccc(F)cc2)ccc1OCc1ccc(Cl)nc1.Cl`, -39.3%.

Consider `CC1COc2ccccc2N1C(=O)c1ccc(Cl)nc1` (stereo not drawn), for which the “hERG current change (%, negative = inhibition) at 1uM” value is 5.15%.

Regarding `CCCNC(=O)c1nn2c(C(F)(F)F)cc(-c3ccccc3)nc2c1Cl`, the “hERG current change (%, negative = inhibition) at 1uM” value was 3.89%.

As to `O=C(NC(=S)NNC(=O)c1ccco1)c1ccc(F)cc1`, the “hERG current change (%, negative = inhibition) at 1uM” value was found to be 16.8%. For the compound `C[n+]1cc[nH]c1SCC(=O)c1ccccc1.[Br-]`, the “hERG current change (%, negative = inhibition) at 1uM” value worked out at 3.49%. For the compound `O=C(Nc1ccc(S(=O)(=O)N2CCCC2)cc1)C1CCN(S(=O)(=O)c2ccc(F)cc2)CC1`, the “hERG current change (%, negative = inhibition) at 1uM” value stood at 20.4%. For `CCCCC[C@H]1CN(C2CCCCC2)C(=O)[C@@H]1CC(=O)NCc1ccc(OC)cc1`, the “hERG current change (%, negative = inhibition) at 1uM” value is reported as -6.02%. As for `O=C(Cc1cccc(C(F)(F)F)c1)N1CCCC1`, the figure is 11.1%; as for `O=C(CSc1ncn[nH]1)c1cc2ccccc2o1`, 5.17%; as for `COc1ccc(-n2nc3c(N4CCC(C(=O)NCc5cccc(C)c5)CC4)nnc(C)c3c2C)cc1`, 13.6%. With `COc1cc2c(cc1OC)CN(CC(=O)Nc1ccc(Cl)c(S(=O)(=O)N(C)C)c1)CC2` the figure was 6.56%. As for `COc1cc(OC)c(C(=O)OCC(=O)c2cc(C)n(CC3CCCO3)c2C)cc1OC` (stereo not drawn), the figure is 11.8%; as for `Cc1cc(Cl)ccc1OCC(O)CNCCc1ccc(S(N)(=O)=O)cc1` (stereo not drawn), -58.2%.

Take `COc1ccc(NCC(=O)n2c(C)c(C)c3ccccc32)cc1`: the “hERG current change (%, negative = inhibition) at 1uM” value was 10.3%. Take `O=C(C1CC1)N1N=C(c2cccc(Br)c2)CC1(O)C(F)(F)F` (stereo not drawn): the “hERG current change (%, negative = inhibition) at 1uM” value is reported as 8.35%. `CC(=O)Nc1ccc(N2C(=O)CC(N3CCN(Cc4ccc5c(c4)OCO5)CC3)C2=O)cc1` (stereo not drawn): the “hERG current change (%, negative = inhibition) at 1uM” value came out at 13.3%. As for `COc1cc([N+](=O)[O-])ccc1NC(=O)C[n+]1cccc(C(C)=O)c1.[Cl-]`, the figure is 16.5%; as for `CC1CCCCC12NC(=O)N(CC(=O)Nc1ccccc1N1CCOCC1)C2=O` (stereo not drawn), 2.11%. With `O=C(NCc1ccco1)C(c1ccccc1)N(C(=O)Cc1cccs1)c1cccnc1` (stereo not drawn) the figure was 5.59%; with `COc1cc(C(=S)N2CCOCC2)ccc1O`, 15.8%. `COc1ccccc1NC(=O)C1CCCN1C(=O)Nc1ccc(F)cc1` (stereo not drawn): the “hERG current change (%, negative = inhibition) at 1uM” value stood at 6.23%.

Regarding `COc1ccc(NC(=O)c2ccc3c(c2)CCN3S(=O)(=O)c2ccccc2)c(OC)c1`, the “hERG current change (%, negative = inhibition) at 1uM” value is listed as 11.4%. With `CCn1c(C)nc2cc(S(=O)(=O)Nc3ccc(C)cc3)ccc21` the figure was 18.1%; with `O=C(/C=C/c1ccccc1)c1ccccc1`, 19.2%.

On to `COc1ccccc1-c1cc(N)n[nH]1`, for which the “hERG current change (%, negative = inhibition) at 1uM” value came out at 10.2%. With `Cc1cc(NC(=O)COC(=O)C2CCN(S(=O)(=O)c3c(Cl)cccc3Cl)CC2)no1` the figure was 2.84%; with `COC(=O)/C=C1/SC(=NC(=O)c2ccc(OC)cc2)NC1=O`, 19.8%. For the compound `CCCN(C(=O)c1ccc(N2CCCC2=O)cc1)C1CCS(=O)(=O)C1` (stereo not drawn), the “hERG current change (%, negative = inhibition) at 1uM” value is recorded as 9.89%. Turning to `Nc1ccc(-c2nc3nc(N)nc(N)c3nc2-c2ccc(N)cc2)cc1`, the “hERG current change (%, negative = inhibition) at 1uM” value is 12.4%. As for `O=C(NCC(=O)N1CCN(c2ccccc2)CC1)c1ccc(Cl)cc1`, the figure is 17.8%. Consider `C=C(Cl)COc1ccc2c(CC)cc(=O)oc2c1`, for which the “hERG current change (%, negative = inhibition) at 1uM” value is recorded as -3.72%. As for `CC(=O)c1ccc(OCC(C)C)c(CN2CCCCC2)c1.Cl`, the figure is -2.06%; as for `O=C(O)COc1ccc(S(=O)(=O)NCCc2ccccc2)cc1`, 5.92%.

On to `COc1ccc(CNC(=O)C2CCNCC2)cc1`, for which the “hERG current change (%, negative = inhibition) at 1uM” value is 12.2%. As for `COc1cccc(CN2CC(C(=O)NCCn3ccc(C)n3)CCC2=O)c1` (stereo not drawn), the figure is 12.3%; as for `O=C(NCCC(=O)N1CCN(Cc2c(F)cccc2Cl)CC1)c1ccc(Cl)cc1`, -4.72%. As for `COc1ccc(/C=N/NC(N)=S)cc1OC(=O)c1cccc2ccccc12`, the figure is 5.11%. With `CC(=O)N1CCN(S(=O)(=O)c2cccc(C(=O)OCC(=O)N(CCC#N)c3ccc(F)cc3)c2)CC1` the figure was 18.2%; with `CCN(CC)CCCN1C(=O)CSC1c1ccc([N+](=O)[O-])cc1.Cl` (stereo not drawn), -74.4%; with `CCS(=O)(=O)N1CCC(C(=O)NCC2CCCO2)CC1` (stereo not drawn), 5.05%. Regarding `O=c1[nH]c(CN2CCN(S(=O)(=O)c3ccccc3C(F)(F)F)CC2)nc2sc3c(c12)CCCC3`, the “hERG current change (%, negative = inhibition) at 1uM” value worked out at 17.4%.

`Cc1csc2nc(CNC(=O)c3cccc(C(F)(F)F)c3)cn12`: the “hERG current change (%, negative = inhibition) at 1uM” value is given as 3.48%.

With `CC(C)NS(=O)(=O)c1ccc(OCC(=O)N2CCCC2)c(Cl)c1`, the “hERG current change (%, negative = inhibition) at 1uM” value was 6.16%. As for `CN(C)CCCNC(=O)c1ccccc1Oc1ccccc1`, the figure is -2.29%; as for `O=C(NC(=S)Nc1ccc2[nH]c(=O)[nH]c2c1)c1cncc(Br)c1`, 12.2%; as for `C=CCN(c1ccccc1)S(=O)(=O)c1cccc(C(=O)Nc2nc3ccccc3[nH]2)c1`, 6.46%. With `Cc1cccc(C)c1N1CC(=O)N(c2c(C)cccc2C)CC1=O` the figure was 6.43%; with `Cc1nc2sc3c(NCc4ccco4)ncnc3c2c2c1COC(C)(C)C2`, 12.4%. With `Cc1ccccc1NC(=O)CN(C)S(=O)(=O)c1cccc2cccnc12`, the “hERG current change (%, negative = inhibition) at 1uM” value was determined as 0.118%. As for `COc1ccc(NC(=O)c2ccc(CN(c3cc(Cl)ccc3C)S(=O)(=O)c3ccccc3)cc2)cc1OC`, the figure is 2.14%. With `CC(C)CC(NC(N)=O)C(=O)Nc1cccc([N+](=O)[O-])c1` (stereo not drawn) the figure was 8.11%; with `Cc1ccc(S(=O)(=O)CCC(=O)N2CCN(c3ccccc3F)CC2)cc1`, 8.62%; with `O=C(Nc1ccc(Br)cc1Cl)c1ccc2c(=O)n3c(nc2c1)CCC3`, 3.46%. Consider `CCCc1cc2c(=O)c(-c3ccc4c(c3)OCCO4)coc2cc1OS(C)(=O)=O`, for which the “hERG current change (%, negative = inhibition) at 1uM” value is 15.3%. With `COc1ccc(-c2cc(=Nc3ccc(C)cc3)c3ccccc3o2)cc1` the figure was 8.29%. With `Cc1cc(C)n(-c2nnc(C)n2/N=C/c2ccccc2OCc2ccccc2Cl)n1` the figure was -2.75%; with `O=C(O)c1cc(N/N=C/c2cccs2)ccc1Cl`, 18.1%.

As to `O=C(CSc1n[nH]c(-c2ccccn2)n1)Nc1cccc(Cl)c1`, the “hERG current change (%, negative = inhibition) at 1uM” value was determined as 10.6%.

Regarding `COC(=O)C(C)NC(=O)C12CC3CC(C1)CC(c1ccc(C)cc1)(C3)C2` (stereo not drawn), the “hERG current change (%, negative = inhibition) at 1uM” value was determined as 9.06%. Regarding `CCOC(=O)c1cccc(NS(=O)(=O)Cc2ccccc2)c1`, the “hERG current change (%, negative = inhibition) at 1uM” value worked out at 7.43%.

With `CCOC(=O)CCN1C(=O)c2ccccc2Sc2ncccc21`, the “hERG current change (%, negative = inhibition) at 1uM” value was 12.1%. In the case of `Nc1c(C(=O)Nc2ccccc2)nnn1-c1ccc2c(c1)OCCO2`, the “hERG current change (%, negative = inhibition) at 1uM” value was 14.1%.

Take `Cc1ccc(/C=N/NC(=O)Cn2cnc3ccccc32)o1`: the “hERG current change (%, negative = inhibition) at 1uM” value was 8.67%. Turning to `CN(Cc1nc(Cc2ccccc2F)no1)Cc1cccc2ncccc12`, the “hERG current change (%, negative = inhibition) at 1uM” value is given as -9.06%.

In the case of `CCN(CC)C(=O)CSc1ccccc1N`, the “hERG current change (%, negative = inhibition) at 1uM” value was 6.53%.

For the compound `CCN1C[C@]2(COC)CC[C@H](OC)[C@@]34C1[C@]1(OCO[C@@]15C[C@H](OC)[C@H]1C[C@@H]3[C@@H]5[C@H]1OC)[C@@H](O)[C@H]24`, the “hERG current change (%, negative = inhibition) at 1uM” value is recorded as 14.5%.

Turning to `O=C(c1ccc2c(=O)n3c(nc2c1)CCCCC3)N1CCc2ccccc21`, the “hERG current change (%, negative = inhibition) at 1uM” value was found to be 0.473%. Turning to `Cc1cccc(N2CCN(S(=O)(=O)c3cccs3)CC2)c1C`, the “hERG current change (%, negative = inhibition) at 1uM” value was -2.42%.

On to `C/C(CC(C)C)=N\NS(=O)(=O)c1ccc(C)c([N+](=O)[O-])c1`, for which the “hERG current change (%, negative = inhibition) at 1uM” value is given as 6.48%. Regarding `Cc1c(Cl)cccc1NC(=O)Cc1ccc([N+](=O)[O-])cc1`, the “hERG current change (%, negative = inhibition) at 1uM” value is 11.4%.

Regarding `COc1cc(NC(=S)N2CCN(C)CC2)cc(OC)c1`, the “hERG current change (%, negative = inhibition) at 1uM” value is given as 14.3%. With `COC(=O)CCC(=O)c1oc2ccccc2c1N` the figure was -0.856%; with `CCOc1cc(CNC2CCCC2)cc(Cl)c1OCc1ccccc1.Cl`, 8.95%. With `COc1ccc(-c2csc3ncnc(N4CCN(C(=O)c5ccco5)CC4)c23)cc1` the figure was -12.1%.
